What was measured:
A431/CCKBR cells [1] = assay: Kinase inhibitor library screen: [177Lu]Lu-PP-F11N cell uptake; details: 10 μM
[2] = test system: A431/CCKBR-tumor bearing nude mice; assay: SPECT/CT imaging and quantification; details: 2 h after i.v. injection, 4 tumors per group
Experimental: For SPECT/CT imaging, [^177Lu]Lu-PP-F11N was purified by HPLC and 0.2 nmol of radiolabeled [^177Lu]Lu-PP-F11N was diluted in PBS (10 MBq in 100 µl). Two hours after i.v. injection, mice were sacrificed and subjected to 10 min X-ray computed tomography (CT) followed by 5 h single-photon emission computed tomography (SPECT) using a multipinhole small-animal NanoSPECT/CT camera (Mediso Medical Imaging Systems). Image reconstruction and quantification was accomplished by using connecting thresholding and Otsu method (VivoQuant 3.0 Patch1).

A431/CCKBR cells [3] = details: for membrane-bound activity of [177Lu]Lu-PP-F11N: 100 nM RAD001 or 10 mM metformin vs control
[4] = test system: A431/CCKBR-tumor bearing nude mice; assay: Biodistribution of [177Lu]Lu-PP-F11N; details: for tumor uptake of [177Lu]Lu-PP-F11N, ratio [treatment/Control]: 5 daily i.p. doses, RAD001 3 mg/kg or metformin 200 mg/kg
ERK1/2 phosphorylation = assay: WB analysis of phospho-ERK1/2; assay type: cell-based, human
Experimental: Antibodies against phospho-S6 at S235/S236 (D57.2.2F), ERK1/2 (9102), phospho-ERK1/2 (T202/Y204), GAPDH (14C10) and HA-Tag (C29F4) were obtained from Cell Signaling Technology, whereas the anti-CCKBR (ab77077) was from Abcam. Cells were homogenized in lysis buffer (50 mM Tris-HCl pH 7.5, 150 mM NaCl, 1% Triton X, 0.1% SDS supplemented with 1 mM sodium orthovanadate, 1 mM NaF and protease inhibitor cocktail (Roche)). 50 μg of total protein lysates were separated by SDS-PAGE and transferred to PVDF membranes (Millipore) by electroblotting. Membranes were blocked with 5% skim milk in TBST (0.1% Tween 20) for 1 h, and incubated with 2% BSA in TBST overnight with the primary antibody followed by 2 h incubation with HRP-conjugated secondary antibody. Signals were produced by using a chemiluminescence reagent (ECL) and acquired by ImageQuant RT ECL Imager (GE Healthcare). Prior to CCKBR detection by WB, protein lysates were subjected to deglycosylation. Briefly, 18 μL of total protein lysates (50 µg) were mixed with 2 μL of 10× denaturing buffer (5% SDS, 0.4 M DTT) and incubated for 10 min at RT. Next, 4 μL of 10× Glycobuffer (0.5 M sodium phosphate, pH 7.5), 4 μL of 10% Tween-20 and 10 μL of water were added. Finally, 2 μL of PNGase F (Sigma) was added and the reaction was carried out for 16 h at 37°C.

[5] = test system: β-arrestin-1 recruitment to CCKBR; assay: Split luciferase arrestin recruitment assay
Experimental: (§1) Cells at 70-90% confluence on the 6-well plate were transfected with 2 μg per well of each pSI-AGR10 plasmid, [25] with subcloned human 114-βArrestin-1, 114-βArrestin-2, 11S-CAAX and CCKBR by using Lipofectamine 3000 according to the manufacturer's recommendations. Twenty-four h after transfection, 100,000 cells per well were plated into a 96-well plate (Perkin Elmer) and the cells were treated with RAD001 for 20 h. On the next day, the medium was exchanged to DMEM w/o phenol red (Bioconcept), supplemented with 20mM HEPES pH 7.0, 1% furimazine and 19% LCS dilution buffer (Nano-Glo® Live Cell Assay System, Promega) and a white cover was attached to the transparent bottom of the 96-well plate. Cells were stimulated with 1 µM of PP-F11N and the luminescence was measured using a PHERAstar FSX (BMG Labtech). After the recruitment assay, Hoechst fluorescence was measured to control cell number. Briefly, the microplates were frozen at -80°C for 1 h and 100 µl of dH2O was added to each well followed by 1 h incubation at 37°C. Then, the plates were placed at -80°C until frozen and thawed to RT. Next, per each well 100 µL of aqueous Hoechst 33258 (Sigma) diluted to a final concentration of 5 ug/ml in TNE buffer (10 mM Tris, 2 M NaCl, 1 mM EDTA, pH 7.4) was added and the fluorescence was measured using optic filters centred on 360 and 460 nm for excitation and emission, respectively.

[6] = test system: β-arrestin-2 recruitment to CCKBR; assay: Split luciferase arrestin recruitment assay
Experimental: as §1

[7] = treated mice, 5 days, 4 h post injection, mean

Row | Compound | enhancement of [177Lu]Lu-PP-F11N cell uptake compared to untreated control cells (A431/CCKBR cells [1]) | ratio [treatment/Control] of the average concentration of [177Lu]Lu-PP-F11N in tumors [2] | ratio [treatment/Control] of the maximum concentration of [177Lu]Lu-PP-F11N in tumors [2] | membrane-bound activity of [177Lu]Lu-PP-F11N (A431/CCKBR cells [3]) | tumor uptake of [177Lu]Lu-PP-F11N, ratio [treatment/Control] ([4]; 4 h p.i.) | Uptake [% i.A./g] of [177Lu]Lu-PP-F11N, Bone [4, 7] [% i.A./g] | Uptake [% i.A./g] of [177Lu]Lu-PP-F11N, Brain [4, 7] [% i.A./g] | Uptake [% i.A./g] of [177Lu]Lu-PP-F11N, Heart [4, 7] [% i.A./g] | Uptake [% i.A./g] of [177Lu]Lu-PP-F11N, Intestines [4, 7] [% i.A./g] | Uptake [% i.A./g] of [177Lu]Lu-PP-F11N, Kidney [4, 7] [% i.A./g] | Uptake [% i.A./g] of [177Lu]Lu-PP-F11N, Liver [4, 7] [% i.A./g] | also measured
1 | O=C(O)c1ccc2nc(-c3ccccc3)c(-c3ccccc3)nc2c1 [BML-257] | 24-26% | – | – | – | – | – | – | – | – | – | – | –
2 | CN(C)C(=N)N=C(N)N [Metformin, metformin] | – | 1.03 | 1.17 | no significant difference | 1.14 | 0.25 | 0.007 | 0.04 | 0.11 | 3.19 | 0.16 | tumor uptake of [177Lu]Lu-PP-F11N, ratio [treatment/Control] ([4]; 4 h p.i., listed as metformin): did not show a significant difference
3 | CCCC[C@H](NC(=O)[C@H](Cc1c[nH]c2ccccc12)NC(=O)CNC(=O)[C@H](Cc1ccc(O)cc1)NC(=O)[C@H](C)NC(=O)[C@@H](CCC(=O)O)NC(=O)[C@@H](CCC(=O)O)NC(=O)[C@@H](CCC(=O)O)NC(=O)[C@@H](CCC(=O)O)NC(=O)[C@@H](CCC(=O)O)NC(=O)[C@@H](CCC(=O)O)NC(=O)CN1CCN(CC(=O)O)CCN(CC(=O)O)CCN(CC(=O)O)CC1)C(=O)N[C@@H](CC(=O)O)C(=O)N[C@@H](Cc1ccccc1)C(N)=O [PP-F11N, DOTA-(DGlu)6-Ala-Tyr-Gly-Trp-Nle-Asp-Phe-NH2] | – | – | – | – | – | – | – | – | – | – | – | phosphorylation of ERK1/2 (WB) (ERK1/2 phosphorylation): increased phosphorylation; recruitment of β-arrestin-1 to CCKBR [5]: triggered recruitment; recruitment of β-arrestin-2 to CCKBR [6]: stronger interaction
4 | CO[C@H]1C[C@@H]2CC[C@@H](C)[C@@](O)(O2)C(=O)C(=O)N2CCCC[C@H]2C(=O)O[C@H]([C@H](C)C[C@@H]2CC[C@@H](OCCO)[C@H](OC)C2)CC(=O)[C@H](C)/C=C(\C)[C@@H](O)[C@@H](OC)C(=O)[C@H](C)C[C@H](C)/C=C/C=C/C=C/1C [RAD001, Everolimus] | – | 3.11 | 3.17 | no significant difference | 1.79 | 0.19 | 0.008 | 0.031 | 0.11 | 3.22 | 0.17 | uptake of [177Lu]Lu-PP-F11N (A431/CCKBR cells [3]; 20 h incubation with 50, 100 and 200 nM RAD001): increased uptake; tumor uptake of [177Lu]Lu-PP-F11N, ratio [RAD001/Control] ([4]; 3 daily RAD001 doses, 3 mg/kg i.p., 4 h p.i.): 1.56; Uptake [% i.A./g] of [177Lu]Lu-PP-F11N, Tumor ([4]; treated mice (RAD001 3 mg/kg or metformin 200 mg/kg i.p. daily 5 days), 4 h post injection, mean): 19.56 % i.A./g; Uptake [% i.A./g] of [177Lu]Lu-PP-F11N, Blood [4, 7]: 0.04 % i.A./g; Uptake [% i.A./g] of [177Lu]Lu-PP-F11N, Lung [4, 7]: 0.06 % i.A./g; Uptake [% i.A./g] of [177Lu]Lu-PP-F11N, Muscle [4, 7]: 0.05 % i.A./g; Uptake [% i.A./g] of [177Lu]Lu-PP-F11N, Pancreas [4, 7]: 0.17 % i.A./g; Uptake [% i.A./g] of [177Lu]Lu-PP-F11N, Spleen [4, 7]: 0.08 % i.A./g; Uptake [% i.A./g] of [177Lu]Lu-PP-F11N, Stomach [4, 7]: 0.80 % i.A./g
5 | CO[C@H]1C[C@@H]2CC[C@@H](C)[C@@](O)(O2)C(=O)C(=O)N2CCCC[C@H]2C(=O)O[C@H]([C@H](C)C[C@@H]2CC[C@@H](O)[C@H](OC)C2)CC(=O)[C@H](C)/C=C(\C)[C@@H](O)[C@@H](OC)C(=O)[C@H](C)C[C@H](C)/C=C/C=C/C=C/1C [Rapamycin] | 24-26% | – | – | – | – | – | – | – | – | – | – | –

From publication PMC7532663, “Pharmacological inhibition of mTORC1 increases CCKBR-specific tumor uptake of radiolabeled minigastrin analogue [^177Lu]Lu-PP-F11N” (Theranostics, 2020)
